A collection of fitness landscapes (doi:10.1016/j.celrep.2020.107928)
The full ranking holds about 81,000 sequences; the median of “one-hybrid fitness for binding parS DNA” is about -0.17, and the highest 2% start at about 0.51. This is one part of the list.

B1: Caulobacter ParB omega fusion; a variant is named by its letters at X, in order, B8GW30 (parent)
chain: MESVVVGEPGMSEGRRGLGRGLSALLGEVDAAPAQAPGEQLGGSREAPIEILQRNPDQPRRTFREEDLEDLSNSIREKGVLQPILVRPSPDTAGEYQIVAGERAWRAAQRAGLKTVPIMVRELDDLAVLEIGIIENVQRADLNVLEEALSYKVLMEKFERTQENIAQTIGKSXSHVANXMRLLXLPDEVQSYLVSGELTAXHARAIAAAADPVALAKQIIEGGLSVRETEALARKAPNLSAGKSKGGRPPRVKDTDTQALESDLSSVLGLDVSIDHRGSTGTLTITYATLEQLDDLCNRLTRGI

Variants of: B1
Assay: one-hybrid fitness for binding parS DNA (scaled: cognate 1, non-cognate 0); higher = stronger binding
Settings: with parS DNA site
How it was run: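 Fitness here means the log change in variant-to-wild-type read ratio between plasmids sequenced before and after selection. That scale was set so cognate equals 1 and non-cognate equals 0. The selection was a bacterial one-hybrid screen of Caulobacter ParB libraries, four specificity codons randomised, in E. coli USO carrying a HIS3 reporter with the site 19 bp from the promoter, grown 48 hours at 37°C on M9-minus-histidine with 0.1 mM IPTG and 5 mM 3-AT.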

| Variant | one-hybrid fitness for binding parS DNA |
| --- | --- |
| NTAY | ≤ 0.2 |
| RIHN | 0.463 |
| QNCT | ≤ 0.2 |
| QQMC | ≤ 0.2 |
| SFNT | ≤ 0.2 |
| VSVR | ≤ 0.2 |
| IHPK | ≤ 0.2 |
| LMPL | ≤ 0.2 |
| HYLR | ≤ 0.2 |
| VNNS | ≤ 0.2 |
| LVVW | ≤ 0.2 |
| SRIL | ≤ 0.2 |
| MLQW | ≤ 0.2 |
| QMKD | ≤ 0.2 |
| DIAI | ≤ 0.2 |
| FTIN | ≤ 0.2 |
| LTQY | ≤ 0.2 |
| VIKG | ≤ 0.2 |
| HSKT | ≤ 0.2 |
| CCPM | ≤ 0.2 |
| HENR | ≤ 0.2 |
| RQWV | ≤ 0.2 |
| ATPL | ≤ 0.2 |
| CSDC | ≤ 0.2 |
| HQFT | ≤ 0.2 |

| Variant | one-hybrid fitness for binding parS DNA |
| --- | --- |
| VSSR | ≤ 0.2 |
| GRRW | ≤ 0.2 |
| RCKQ | ≤ 0.2 |
| CHTG | ≤ 0.2 |
| PVIN | ≤ 0.2 |
| FNTP | ≤ 0.2 |
| TNDL | ≤ 0.2 |
| DVSM | ≤ 0.2 |
| PEWS | ≤ 0.2 |
| ITIR | ≤ 0.2 |
| DCVK | ≤ 0.2 |
| GQRA | ≤ 0.2 |
| RDEQ | ≤ 0.2 |
| ASTF | ≤ 0.2 |
| RLFS | 1.03 |
| QIYL | ≤ 0.2 |
| NYSG | ≤ 0.2 |
| FVHV | ≤ 0.2 |
| LSKD | ≤ 0.2 |
| PTLV | ≤ 0.2 |
| RLHN | 0.442 |
| TPMD | ≤ 0.2 |
| RSRI | ≤ 0.2 |
| GREF | ≤ 0.2 |
| QSHC | ≤ 0.2 |

| Variant | one-hybrid fitness for binding parS DNA |
| --- | --- |
| QVTS | ≤ 0.2 |
| AKNA | ≤ 0.2 |
| QNYS | ≤ 0.2 |
| FSPG | ≤ 0.2 |
| CNSC | ≤ 0.2 |
| AWGL | ≤ 0.2 |
| AVDG | ≤ 0.2 |
| PGTV | ≤ 0.2 |
| IIIT | ≤ 0.2 |
| MCKA | ≤ 0.2 |
| DVRD | ≤ 0.2 |
| PCGF | ≤ 0.2 |
| TEPE | ≤ 0.2 |
| GHYG | ≤ 0.2 |
| GTRE | ≤ 0.2 |
| RPDI | ≤ 0.2 |
| TKEC | ≤ 0.2 |
| NASI | ≤ 0.2 |
| RTTK | ≤ 0.2 |
| KQNC | ≤ 0.2 |
| GLER | ≤ 0.2 |
| LSQA | ≤ 0.2 |
| HQHI | ≤ 0.2 |
| FKCG | ≤ 0.2 |
| CETK | ≤ 0.2 |

| Variant | one-hybrid fitness for binding parS DNA |
| --- | --- |
| QMST | ≤ 0.2 |
| RTLT | 0.936 |
| CLTI | ≤ 0.2 |
| TQRA | ≤ 0.2 |
| DLYT | ≤ 0.2 |
| NKKG | ≤ 0.2 |
| DFWG | ≤ 0.2 |
| KRLP | ≤ 0.2 |
| VGHA | ≤ 0.2 |
| LQNF | ≤ 0.2 |
| GPQI | ≤ 0.2 |
| SPEW | ≤ 0.2 |
| FMYL | ≤ 0.2 |
| QRFV | ≤ 0.2 |
| VIKN | ≤ 0.2 |
| MDRW | ≤ 0.2 |
| TVRG | ≤ 0.2 |
| AADC | ≤ 0.2 |
| MTKT | ≤ 0.2 |
| NIHS | ≤ 0.2 |
| MLQR | ≤ 0.2 |
| GVWS | ≤ 0.2 |
